The record followed here is paper PMC4336329 (PLoS ONE, 2015).

The campaign covered roughly 310,000 compounds. About 14,000 (4.5%) showed an effect of 50% or more. Effects have a minus sign here. The list shows a part of the results.
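Note: peak tail current of the secondary pulse compared with the same well before compound.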

For the assay, the target named is human ether-à-go-go-related gene (hERG) potassium channel (human, UniProt Q12809). Put plainly: primary screen, population patch clamp on CHO cells stably expressing hERG.
human ether-à-go-go-related gene (hERG) potassium channel, sequence (Q12809 whole entry, looked up): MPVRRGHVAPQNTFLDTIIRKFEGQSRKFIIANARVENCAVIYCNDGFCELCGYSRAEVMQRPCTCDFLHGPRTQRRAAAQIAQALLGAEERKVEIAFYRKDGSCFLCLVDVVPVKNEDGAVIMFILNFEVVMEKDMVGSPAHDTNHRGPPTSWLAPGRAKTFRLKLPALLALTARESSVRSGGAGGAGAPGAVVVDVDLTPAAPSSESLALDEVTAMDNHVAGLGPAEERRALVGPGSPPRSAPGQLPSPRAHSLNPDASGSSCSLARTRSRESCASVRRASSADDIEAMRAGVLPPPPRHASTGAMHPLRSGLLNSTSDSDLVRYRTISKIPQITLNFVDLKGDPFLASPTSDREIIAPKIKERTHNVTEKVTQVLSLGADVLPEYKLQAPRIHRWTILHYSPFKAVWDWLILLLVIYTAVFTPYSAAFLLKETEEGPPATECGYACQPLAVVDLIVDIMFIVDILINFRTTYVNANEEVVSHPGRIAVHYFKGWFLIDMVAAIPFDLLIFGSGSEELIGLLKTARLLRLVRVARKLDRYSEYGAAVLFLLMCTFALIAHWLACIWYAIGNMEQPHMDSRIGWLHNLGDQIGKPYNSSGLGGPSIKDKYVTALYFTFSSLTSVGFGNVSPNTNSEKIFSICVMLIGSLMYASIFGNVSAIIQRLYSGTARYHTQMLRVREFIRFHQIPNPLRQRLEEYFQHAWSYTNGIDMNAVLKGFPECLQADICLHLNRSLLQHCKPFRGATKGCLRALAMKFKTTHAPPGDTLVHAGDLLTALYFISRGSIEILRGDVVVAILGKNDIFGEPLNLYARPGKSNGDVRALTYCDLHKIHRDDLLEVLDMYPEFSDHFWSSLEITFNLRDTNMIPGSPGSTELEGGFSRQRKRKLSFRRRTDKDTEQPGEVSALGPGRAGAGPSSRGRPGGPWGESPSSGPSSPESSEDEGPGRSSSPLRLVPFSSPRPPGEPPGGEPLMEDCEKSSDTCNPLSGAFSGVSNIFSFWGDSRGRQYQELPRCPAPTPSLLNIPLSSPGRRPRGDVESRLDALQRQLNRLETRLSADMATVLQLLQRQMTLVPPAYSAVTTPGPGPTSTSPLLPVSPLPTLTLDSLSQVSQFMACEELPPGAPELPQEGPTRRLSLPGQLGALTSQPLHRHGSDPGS
Turning to `COc1ccc(CNc2nc3ccccc3n2C)c(O)c1`, the “hERG current change (%, negative = inhibition) at 10uM” value is 1.38%. As for `Oc1ccc(C=NCC2COc3ccccc3O2)cc1` (stereo not shown), the “hERG current change (%, negative = inhibition) at 10uM” value is on record as -22%.

As to `O=C(NNc1ccnc2cc(Cl)ccc12)C1CCCCC1`, the “hERG current change (%, negative = inhibition) at 10uM” value is given as 16.1%. As for `Cc1ccccc1Oc1nc2ccccc2n2cnnc12`, the “hERG current change (%, negative = inhibition) at 10uM” value is 7.65%. Regarding `O=C(NCc1ccco1)NC(=O)c1csc([N+](=O)[O-])c1`, the “hERG current change (%, negative = inhibition) at 10uM” value amounted to 11.4%.

In the case of `CC(C)CC(=O)Nc1ccnn1C1CCN(C(=O)c2ccc(F)cc2Cl)CC1`, the “hERG current change (%, negative = inhibition) at 10uM” value is recorded as 3.38%. As to `O=[N+]([O-])c1ccc(NC(=S)N2CCN(c3ccccc3)CC2)cc1`, the “hERG current change (%, negative = inhibition) at 10uM” value is -11.4%. Next, `Cc1ccc(F)cc1NC(=O)CN1CCN(Cc2ccccc2)CC1`: -63.2%; `CCC(=NCC1CCCO1)c1c(O)n(-c2ccc(OC)cc2)c(=O)[nH]c1=O` (stereo not shown): 18.4%; `Cc1ccc(O)c(CNCCNCc2cc(C)ccc2O)c1`: -11.9%. On to `CC1CCN(S(=O)(=O)c2ccc(Br)s2)CC1`, for which the “hERG current change (%, negative = inhibition) at 10uM” value was -17.3%.

Consider `C=CCSc1ccccc1C(=O)Nc1ncn[nH]1`, for which the “hERG current change (%, negative = inhibition) at 10uM” value was determined as 15.5%. With `N#C/C(=C\c1ccncc1)C(N)=O`, the “hERG current change (%, negative = inhibition) at 10uM” value is on record as 10.3%. As to `CC(C)c1ccc(NC(=O)C2C3C=CC4(O3)C2C(=O)N(CCCN2CCOCC2)C4C(=O)NC2CCCCC2)cc1` (stereo not shown), the “hERG current change (%, negative = inhibition) at 10uM” value is given as 19.9%. On to `CCN(CC(=O)Nc1cccc(OC)c1)C(=O)c1ccco1`, for which the “hERG current change (%, negative = inhibition) at 10uM” value was found to be 22.6%.

With `O=C(CSc1nnc(CCCN2C(=O)c3cccc4cccc(c34)C2=O)n1-c1ccccc1)N1CCN(CCO)CC1`, the “hERG current change (%, negative = inhibition) at 10uM” value is given as -13.5%.

Regarding `CCCCN(CC)C(=O)C1CCCN(S(=O)(=O)c2cccc3nsnc23)C1` (stereo not shown), the “hERG current change (%, negative = inhibition) at 10uM” value was 2.48%. For `Cc1ccc(-c2nn(-c3ccccc3)cc2/C=C2\SC(=S)N(CC(=O)O)C2=O)cc1`, the “hERG current change (%, negative = inhibition) at 10uM” value turned out to be 1.27%. For `CCCC(=O)Nc1ccccc1NC(=O)c1ccc(OCC)c(OCC)c1`, the “hERG current change (%, negative = inhibition) at 10uM” value turned out to be 8.15%. In the case of `CCOP(=O)(OCC)C(NC(=O)c1ccc(OC)c(OC)c1)c1ccccc1` (stereo not shown) it was 9.71%; in that of `CCOC(=O)C1=C(CC)Nc2ccccc2N=C1NC(=O)c1oc2ccccc2c1C`, 12.6%. As for `CC(C)CCOc1cccc(OCC(=O)Nc2ccncc2)c1`, the “hERG current change (%, negative = inhibition) at 10uM” value came out at 11.3%. Next, `CCOC(=O)c1nnn2c1nc(N(CC)CC)c1ccccc12`: -6.95%.

Take `CCCOc1ccc(/C=C/C(=O)Nc2ccc([N+](=O)[O-])cc2C)cc1`: the “hERG current change (%, negative = inhibition) at 10uM” value was 23.3%. Consider `O=C(c1cccc(S(=O)(=O)N2CCOCC2)c1)N1CCN(c2ccc(F)cc2)CC1`, for which the “hERG current change (%, negative = inhibition) at 10uM” value was -33.6%. Turning to `C/C(N)=C(\C#N)C(=O)NCc1ccccn1`, the “hERG current change (%, negative = inhibition) at 10uM” value amounted to 10.1%. Turning to `Cc1ccc(C(=O)NNC(=O)CSc2nnc3c(n2)[nH]c2ccc(C)cc23)cc1`, the “hERG current change (%, negative = inhibition) at 10uM” value was found to be 1.79%.

As to `CC(=O)NC(=O)c1cnn(-c2ccccc2)c1N`, the “hERG current change (%, negative = inhibition) at 10uM” value turned out to be 9.47%. `Nc1ccccc1Nc1c(F)c(F)nc(F)c1Cl`: the “hERG current change (%, negative = inhibition) at 10uM” value is 20.1%. `CCOC(CCn1c(SCc2cccc([N+](=O)[O-])c2)nc2ccccc2c1=O)OCC`: the “hERG current change (%, negative = inhibition) at 10uM” value was -14.6%. Next, `O=C(CSc1ccc(-c2ccc(Cl)cc2)nn1)Nc1ccc2c(c1)OCCO2`: 21.6%; `COC(=O)C1=C(C)N(CCCC(=O)O)C(=O)NC1c1ccccc1OS(=O)(=O)c1ccc([N+](=O)[O-])cc1` (stereo not shown): 7.31%. Turning to `c1ccc2c(c1)nnn2-c1ncnc2sccc12`, the “hERG current change (%, negative = inhibition) at 10uM” value is recorded as 18.1%. With `C[C@@H]1NC(=O)[C@H](CCC(N)=O)NC(=O)c2cc([N+](=O)[O-])cc(I)c2NCCC[C@@H](C(N)=O)NC1=O`, the “hERG current change (%, negative = inhibition) at 10uM” value was -8.81%. `Cc1ccc(/C=C2\SC(=S)N(C(Cc3ccccc3)C(=O)O)C2=O)cc1` (stereo not shown): the “hERG current change (%, negative = inhibition) at 10uM” value came to 14.7%.

In the case of `CCCOC(=O)C1=C(C)N(C)C(=O)NC1c1cc2c(cc1[N+](=O)[O-])OCO2` (stereo not shown), the “hERG current change (%, negative = inhibition) at 10uM” value worked out at 12.2%.

As to `Cc1ccc(NC(=O)c2ccc(Cl)c(NC(=O)c3cccs3)c2)cc1`, the “hERG current change (%, negative = inhibition) at 10uM” value is on record as -12.5%. `Cc1cccc(Cn2cc(C=O)c3ccccc32)c1`: the “hERG current change (%, negative = inhibition) at 10uM” value turned out to be 12.2%. In the case of `Cc1ccc(-c2nc(N/N=C/c3ccccc3[N+](=O)[O-])c3ccccc3n2)cc1` it was -2.26%; in that of `CSCCC1(C(=O)O)NC(c2ccccc2O)C2C(=O)N(C(C)C)C(=O)C21` (stereo not shown), 24.7%; in that of `COc1ccc(C(=O)NN2C(=O)C3C(c4ccccc4)C=CC(c4ccccc4)C3C2=O)cc1` (stereo not shown), -4.38%. In the case of `Cc1nn(C)cc1C1C2=C(CC(C)(C)CC2=O)OC2=C1C(=O)CC(C)(C)C2` it was -31.5%. As to `OCC[C@H]1C[C@H](O)[C@@H](O)[C@]2(Cc3ccccc3O2)O1`, the “hERG current change (%, negative = inhibition) at 10uM” value is listed as -17.1%.
